Results: PubChem BioAssay AID1347073 (National Center for Advancing Translational Sciences (NCATS), 2019)
About 200 (0.44%) of roughly 45,000 compounds were called active. Not shown: some 7% with an inconclusive outcome. The call rests on the fitted dose curve; in most records, active means well fitted activation curve with a large enough effect; inconclusive means small, poorly fitted or top-dose-only effect; inactive means no such curve, though single readings can be large or run the other way. The list shows a part of the results.

Experiment: qHTS of TDP-43 Inhibitors: NCGC Sytravon Library Screen; further: 0% is about no effect; nearly all actives have a fitted effect of over 55% in size
Details: yeast TDP-43 toxicity rescue, BacTiter-Glo growth, 24 h; series mostly up to 46.1 µM; growth rescue (activation): at the top concentration
In short: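 TDP-43-expressing yeast, pregrown in raffinose, seeded at OD600 0.02 in galactose medium with compound for 24 hr at 30 deg C. Growth read by BacTiter-Glo luminescence, so rescue of toxicity appears as activation.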

| Structure (SMILES) | growth rescue (activation) |
| --- | --- |
| CCc1nc(NCCCN2CCOCC2)c2oc3ccccc3c2n1 | inactive: 1.3% |
| Cc1c(NC(=O)Cc2noc3ccccc23)cccc1[N+](=O)[O-] | inactive: 14.9% |
| Cc1ccc(S(=O)(=O)/N=C2\SC(CC(=O)Nc3ccc(F)cc3)C(=O)N2c2ccccc2)cc1 (centres undefined) | inactive: 10.5% |
| COC(=O)c1[nH]c2ccc(C)cc2c1NS(=O)(=O)c1ccc(F)c(C)c1 | inactive: 28.3% |
| COc1ccc(NC(=O)N2CCCC2C(=O)NCc2ccc(C)cc2)cc1 (centres undefined) | inactive: -3.23% |
| CCOc1cc(CNCCCN2CCOCC2)ccc1OCC(=O)NC(C)(C)C | inactive: 4.31% |
| COCCn1c(SCC(=O)NC2CCCCC2)nnc1-c1ccncc1 | inactive: -8.03% |
| CCOc1ccc(C(=O)OCC(=O)NC(C)C)cc1 | inactive: -6.54% |
| Cc1cc(=O)[nH]c(SCC(=O)Nc2nonc2C)n1 | inactive: 7.42% |
| COc1cccc(-n2c(SCC(=O)Nc3ccc4c(c3)CCC4)nc3ccccc3c2=O)c1 | inactive: 2.78% |
| Cn1cnnc1SCC(=O)Nc1cc(S(=O)(=O)N2CCCCCC2)ccc1Cl | inactive: 3.37% |
| Cc1ccc(C(=O)NCC(=O)OCC(=O)Nc2cc(S(=O)(=O)N3CCOCC3)ccc2Cl)s1 | inactive: 15.4% |
| O=C(COc1ccc(S(=O)(=O)N2CCOCC2)cc1Cl)NCc1ccco1 | inactive: 11.8% |
| O=C(CSc1nnc(-c2ccc(O)cc2)o1)Nc1ccccc1 | inactive: 14% |
| COc1ccccc1NC(=O)COC(=O)c1cnc(C)cn1 | inactive: -1.36% |
| Cc1ccc(C(=O)N/N=C/C=C/c2ccccc2)o1 | inactive: 26.8% |
| CC(C)CN1C(=O)C(=O)N(CC(=O)NCc2ccc3c(c2)OCO3)C1=O | inactive: -6.02% |
| O=[N+]([O-])c1ccc2c(OCc3nnc(-c4ccccc4Br)o3)ncnc2c1 | inactive: -10.7% |
| Cc1cccc(C(=O)N2CCN(CCNC(=O)C(=O)Nc3ccc(F)cc3)CC2)c1 | inactive: 0.496% |
| Cc1sc2ncn(CC(=O)N3CCCC(C)C3)c(=O)c2c1S(=O)(=O)N1CCCCC1 (centres undefined) | inactive: -11% |
| O=C(NNC1=NCCC1)c1cccc(S(=O)(=O)N2CCCC2)c1 | inactive: -4.23% |
| CCCSc1ncc(Cl)c(C(=O)N(Cc2cccc(Cl)c2)C2CCS(=O)(=O)C2)n1 (centres undefined) | inactive: 16.5% |
| Cc1c(OC(C(=O)O)c2ccccc2)ccc2c(-c3ccccc3)cc(=O)oc12 (centres undefined) | inactive: -15.2% |
| CNC(=S)N(CCc1c(C)[nH]c2ccc(F)cc12)Cc1ccco1 | inactive: 9.08% |
| CCN(C(=O)c1cc2c(=O)n3cccc(C)c3nc2s1)C1CCCCC1 | inactive: 22.6% |
| CCCC(=O)NC(c1ccc(OC)cc1)c1c(O)ccc2ccccc12 (centres undefined) | inactive: -7.69% |
| COc1ccc(N(CCC#N)C(=O)/C(C#N)=C\c2cccs2)cc1 | inactive: 0.667% |

| Structure (SMILES) | growth rescue (activation) |
| --- | --- |
| CCOC(=O)C1CCCN(S(=O)(=O)c2cc(Br)cc3c2N(C(C)=O)CC3)C1 (centres undefined) | inactive: -18.9% |
| CC1CN(CCCCN2C(=O)c3ccccc3C2=O)CC(C)O1 (centres undefined) | inactive: -3.24% |
| Cc1noc(/C=C/c2ccco2)c1S(=O)(=O)N1CCC(C(=O)Nc2ccc(Cl)cn2)CC1 | inactive: 3.65% |
| CC(OC(=O)CCCC(=O)Nc1ccccc1)C(=O)c1ccccc1 (centres undefined) | inactive: -15.5% |
| Cc1ccc(S(=O)(=O)NCCn2nc(C)cc2C)cc1 | inactive: 3.59% |
| O=S(=O)(c1ccc(Cl)cc1)N(CCCN1CCOCC1)Cc1cccs1 | inactive: 9.75% |
| COc1ccccc1C(NC(=O)C1CCCCC1)c1c(O)ccc2ccccc12 (centres undefined) | inactive: 16.4% |
| CCOc1ccc(C(=O)CCC(=O)NCC(=O)OCc2ccccc2)cc1OCC | inactive: -0.159% |
| COc1cccc(CNC(=O)CCCn2ncn3c(cc4occc43)c2=O)c1 | inactive: 8.88% |
| CC(C)C(C(=O)NCC1CCCO1)N(C(=O)CNS(=O)(=O)c1ccccc1)c1ccc(F)cc1 (centres undefined) | inactive: 1.15% |
| COc1cc(-c2nc(=S)[nH][nH]2)cc(OC)c1OC | inactive: -7.92% |
| c1ccc2c(N3CCCCC3)nc(N3CCCCC3)nc2c1 | inactive: 7.7% |
| CCOC(=O)c1ccc(NC(=O)Nc2c(C)n(C)n(-c3ccccc3)c2=O)cc1 | inactive: 7.13% |
| O=C(CN1CCN(c2ccccn2)CC1)Nc1cccc(S(=O)(=O)N2CCOCC2)c1 | inactive: -8.81% |
| O=C(Nc1cccnc1)c1cc(F)c(F)cc1Cl | inactive: 7.7% |
| Cc1cc(C)nc(SCC(=O)N2CCCCC2)n1 | inactive: -26.7% |
| O=C1CCC(C(=O)N2CCC(CO)(Cc3ccc(Cl)cc3)CC2)=NN1 | inactive: 4.8% |
| COc1cccc(CN2CCN(C3CCN(c4ccccc4F)CC3)CC2CCO)c1 (centres undefined) | inactive: -3.07% |
| CCc1ccccc1Oc1nc(NCCOC)nc2cc(-c3ccccc3)sc12 | inactive: 17.5% |
| Cc1cc(C)c(S(=O)(=O)N2CCCC(C(=O)NCc3ccccn3)C2)c(C)c1 (centres undefined) | inactive: -15.4% |
| Cc1cc(C(C)(C)C)cc(C)c1COC(=O)c1cccnc1 | inactive: 19% |
| COc1ccccc1/C=N/NC(=O)c1sc(C)nc1C | inactive: 2.71% |
| COc1ccc2nc(NC(=O)c3cccc(OCc4c(C)noc4C)c3)sc2c1 | inactive: 17.1% |
| C/C(=N\N1CCN(Cc2ccccc2Cl)CC1)c1ccc(F)cc1 | inactive: 13.5% |
| N#Cc1cccc(NC(=O)COC(=O)c2cc(S(=O)(=O)Nc3ccccc3Cl)ccc2O)c1 | inactive: 2.77% |
| Cc1ccc(NC(=O)c2ccc(C(C)(C)C)cc2)cc1-n1cnnn1 | inactive: -6.01% |
| CC(=O)Oc1ccc(-n2c(=O)c3ccccc3c3ccccc3c2=O)cc1 | inactive: -1.3% |
